# From the RNAGym collection of RNA variant scans (doi:10.1093/nar/gkz1192)
# Read counts are not given, so values of variants with three or more changes are uncertain.
# B1: CPEB3 Ribozyme (parent)
# chain: UAACAGGGGGCCACAGCAGAAGCGUUCACGUCGCAGCCCCUGUCAGAUUCUGGUGAAUCUGCGAAUUCUGCUGUAUAUCUC
# Variants of: B1
# Experiment: self-cleavage, relative activity (ratio to wild type); higher = more cleavage; in vitro, sequencing
# Method in brief: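 Libraries of CPEB3 self-cleaving ribozyme mutants came from rounds of error-prone PCR and carried barcodes, which DNA sequencing matched to variants. In vitro transcription used T7 RNA polymerase at 37°C for 5 hours, with a further 15 min in DNase I before EDTA stopped the reaction; the ribozymes cleaved during both steps. The RNA was reverse transcribed with template switching and sequenced on Illumina. Relative activity is the cleaved/total read fraction of a variant divided by that of the unmutated ribozyme, averaged over three batches with at least 5 reads.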
row,Variant,self-cleavage
1,C4U U41C A45G U51C A57C U72A A75G,0.15
2,C4U U41C U43C U60G A64U,0.23
3,C4U U41G U72C,0.17
4,C4U U49A U51C U67A,0.66
5,C4U U51A A57G,0.56
6,C4U U51A G55U U80A,0.96
7,C4U U54C A57G U60C,0.25
8,C4U U74A A75G,1.32
9,A5C A13C G53A U60C A65U U80C,0.17
10,A5C A13G C79U,1.12
11,A5C A13G G30A U51C C81G,0.13
12,A5C A13G U31C,0.46
13,A5C A13U U31A U41C U58C,0.3
14,A5C A13U U31C U72C A77G,0.53
15,A5C A15G A20G U25A U54C A56U U74C,0.36
16,A5C A15G A21G U51C A57G A75G,0.5
17,A5C A15G A21U U26C U49A,0.09
18,A5C A15G A75G,0.66
19,A5C A15G U25C,0.69
20,A5C A15G U72C,1.04
21,A5C A15U A20G A21G U48C A56U,0.09
22,A5C A15U A45G A56U,0.19
23,A5C A15U U43A U54C,0.94
24,A5C A18G A77U,0.64

row,Variant,self-cleavage
1,A5C A18G U25A U58A,0.37
2,A5C A18U A20C A65G,0.37
3,A5C A18U U67C,0.14
4,A5C A20G A45G A77G,0.72
5,A5C A20G G24C A56G G63C A64G,0.1
6,A5C A20G G33C C40A A65G U69C,0.06
7,A5C A20G U41A U76C,0.58
8,A5C A20U A35G,0.88
9,A5C A21G A47G U49C,0.6
10,A5C A21G U51C,0.48
11,A5C A28G A64G U69A,0.13
12,A5C A35G G63A U67C,0.71
13,A5C A35G U48C A57G G63A U66C U67C,0.19
14,A5C A35U U41C A45U U72C A75C,0.1
15,A5C A47G U69A U80C,0.48
16,A5C C14A U72C,1.13
17,A5C C27A A28G G73A U78C,0.43
18,A5C C29U U41C U60C A64G,0.11
19,A5C C34U A35G A56G U78C,0.27
20,A5C C40U U49C,0.13
21,A5C C50U U58C U69C C81G,0.12
22,A5C G6A A13U C29U U43C U54A A57G,0.1
23,A5C G6A A64G U66C U72C A75G,0.05
24,A5C G6C A45G U80C,0.17

row,Variant,self-cleavage
1,A5C G9U U67A,0.08
2,A5C G24A C39A A57G,0.38
3,A5C G33U G55C A65U U72A,0.07
4,A5C G36U A47G,0.32
5,A5C G61A U78C,0.5
6,A5C U25A U51A A57G A75C U76C,0.11
7,A5C U26C C29G A45G U49C U72C U80C,0.09
8,A5C U26C U31C,0.87
9,A5C U26C U51C,0.54
10,A5C U43A A45G A64U U72C,0.21
11,A5C U43A A45G U51C U72C,0.78
12,A5C U49C A64U,0.09
13,A5C U49C A75U,0.83
14,A5C U49C U67C,0.08
15,A5C U51A U58C G73A,0.6
16,A5C U69A U74C,0.7
17,A5G A13C A45G,0.71
18,A5G A13C A45G A75G U78A,0.46
19,A5G A13C A65U,0.21
20,A5G A13C G33A U51A,0.17
21,A5G A13C U43C A64U,0.11
22,A5G A13G A15U A56U A57G U78A,0.12
23,A5G A13G A18U A47G C62U,0.16
24,A5G A13G A18U U49A,0.44

row,Variant,self-cleavage
1,A5G A13G A20G U58C A77U,0.08
2,A5G A13G A20U U26C U41C U66C,0.05
3,A5G A13G A21G A45U G73A,0.12
4,A5G A13G A28U U49C U58C,0.05
5,A5G A13G A35G U48C,0.09
6,A5G A13G A56U A64U,0.1
7,A5G A13G C29U U54C A64U C79G U80C,0.06
8,A5G A13G C38G A64G A65G U69C,0.3
9,A5G A13G C71U,0.29
10,A5G A13G U25C U48C,0.08
11,A5G A13G U26C A35C,0.47
12,A5G A13G U26C U41A A56U U69A U74C,0.08
13,A5G A13G U31C,0.56
14,A5G A13G U51C U54C,0.54
15,A5G A13G U78C,0.58
16,A5G A13U A15U C50A,0.5
17,A5G A13U A18G A21G U41A A65G,0.08
18,A5G A13U A18G A28G A35G U49C U67A,0.09
19,A5G A13U A18U G46C,0.28
20,A5G A13U C62A U80C,0.36
21,A5G A13U G30A U43C,0.12
22,A5G A13U G52A,0.9
23,A5G A13U G52C A57G,1.01
24,A5G A13U G52C U60C U67A U80C,0.44

row,Variant,self-cleavage
1,A5G A13U U26A U78C U80C,0.38
2,A5G A13U U41A U49A U72C U80C,0.15
3,A5G A13U U49C U58C,0.23
4,A5G A13U U51A U72C,0.82
5,A5G A13U U60C U72C,0.3
6,A5G A13U U72A,0.45
7,A5G A15C U43A,0.73
8,A5G A15C U48C A57G,0.7
9,A5G A15G A18G A28G,0.52
10,A5G A15G A20G A28U U43C U51A,0.05
11,A5G A15G A21G A28G U76G,0.43
12,A5G A15G A35U,0.45
13,A5G A15G A35U U60C,0.07
14,A5G A15G A45G A57G A64G,0.49
15,A5G A15G A45G G53A A56G U76C,0.28
16,A5G A15G A77G,0.54
17,A5G A15G C29U A64U U72A,0.12
18,A5G A15G C37U U41G U49C U67A,0.15
19,A5G A15G C40U U78C,0.15
20,A5G A15G G73A,0.87
21,A5G A15G U25A U41A U76A,0.47
22,A5G A15G U25A U41C C62U A64G U76A,0.04
23,A5G A15G U25C A56U G61U U72A,0.16
24,A5G A15G U25C G33A,0.06

row,Variant,self-cleavage
1,A5G A15G U26C A45G A56U,0.06
2,A5G A15G U26C A56U U74A,0.36
3,A5G A15G U31C U41C U51A G55U,0.1
4,A5G A15G U51A,0.45
5,A5G A15G U54C G61C U72C,0.09
6,A5G A15G U78A,0.74
7,A5G A15G U80A,0.45
8,A5G A15U A20G C62U,0.26
9,A5G A15U A28G U80C,0.11
10,A5G A15U A45U U48C U67C U76C,0.08
11,A5G A15U A45U U80A,0.76
12,A5G A15U C29U U58A A65G U78C,0.09
13,A5G A15U U31C U54G U60A A75G,0.09
14,A5G A15U U41A U43C A47G A56U U67G,0.07
15,A5G A15U U48C U80A,0.37
16,A5G A15U U60C,0.3
17,A5G A18G A20G U60C U67C,0.21
18,A5G A18G A20U,0.4
19,A5G A18G A20U C29U G53U,0.36
20,A5G A18G A21G U60G U80G,0.22
21,A5G A18G A45G,0.54
22,A5G A18G A45G A64U U72C,0.73
23,A5G A18G A65G U67C,0.16
24,A5G A18G C27U U74C,0.11

row,Variant,self-cleavage
1,A5G A18G C40U U49C A56G C71A,0
2,A5G A18G G19A U41A U69A,0.07
3,A5G A18G U26C A28U A57G,0.3
4,A5G A18G U31C G33A C38U C62G U72A,0.1
5,A5G A18G U41A A56G,0.12
6,A5G A18G U58C U69C,0.32
7,A5G A18U A45C C62A A64G A75G,0.13
8,A5G A18U C68A,0.28
9,A5G A18U G22U,0.7
10,A5G A18U G36A U54C,0.18
11,A5G A18U U25C U41C U49G U54G,0.25
12,A5G A18U U26A U41A,0.27
13,A5G A18U U26A U49C,0.42
14,A5G A18U U51A,0.28
15,A5G A18U U66C,0.28
16,A5G A18U U78C U80C,0.21
17,A5G A20C A28G U74A,0.57
18,A5G A20C G24U U51A C71U,0.09
19,A5G A20G A35U U43C A65U,0.09
20,A5G A20G A45G G46A U48C A77G,0.8
21,A5G A20G A47G U66C U69C,0.32
22,A5G A20G A57G,0.5
23,A5G A20G A64G U66C A75U,0.08
